The subject of the data set is ATP. The data set is described as follows: switch fluorescence ratio, 500 uM ATP over buffer (Cy3 cluster intensity, sum of 5 cycles each) (fold (ratio)); higher = stronger signal-on switching upon ATP binding; sequences stand for … in TCGTCGGCAGCGTCAGATGTGTATAAGAGACAGTTTTTTTTTTTTTTTTTTTTTTTTT…TC. The following applies: aptamer strand: ATP DNA aptamer (quencher-CACCTGGGGGAGTATTGCGGAGGAAGG + anchor), 100 nM annealed; ATP concentration: 500 uM; one replicate. In outline:
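Between each of five buffer/ATP cycles, the flow-cell was stripped with NaOH and re-annealed. Each cycle imaged Cy3-labelled switching-strand clusters, annealed to 100 nM quencher-labelled ATP aptamer on a modified Illumina MiSeq flow-cell, first in selection buffer and then after 15 min with 500 uM ATP at 22 °C. The fluorescence ratio is summed target-cycle over summed buffer-cycle Cy3 intensity per cluster, averaged per switch-domain sequence, with clusters outside 100-1000 RFU excluded.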

Values marked as one replicate rest on one cluster of the flow cell; about a third of the high ones do not repeat.

We go through 120 sequences from the supplement of paper PMC10126150.
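Also: ATP exposure 15 min at 22 °C before imaging.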

Consider TTAATTGAG, for which the switch fluorescence ratio came out at 1.01.

With CGCCAAATAT, the switch fluorescence ratio came out at 1.73.

Take GCACGCCCTA: the switch fluorescence ratio stood at 1.06.

Turning to TTCAAATTCT, the switch fluorescence ratio is 0.985.

Regarding TGATATCACG, the switch fluorescence ratio came to 1.04.

Turning to TATCTGTAAT, the switch fluorescence ratio was 1.08.

CCGGGGGTGG: the switch fluorescence ratio came to 1.04.

As to ATGTCGGTTA, the switch fluorescence ratio was 0.964.

Consider TCTCTACATC, for which the switch fluorescence ratio was 1.12.

Turning to CGGGACAATC, the switch fluorescence ratio was 1.46.

Consider TGTGTCGGTG, for which the switch fluorescence ratio was determined as 1.02.

In the case of GGCTAGGGCA, the switch fluorescence ratio stood at 0.979.

As to GGAAAGGATG, the switch fluorescence ratio amounted to 1.29.

Turning to GCTCGCGACT, the switch fluorescence ratio was found to be 1.04.

As to GTTTTATAAT, the switch fluorescence ratio amounted to 1.01.

Regarding TAGAGTAACG, the switch fluorescence ratio was determined as 1.08.

Turning to TATTGGACTT, the switch fluorescence ratio was 0.998.

For the sequence CGCACGAGGG, the switch fluorescence ratio came to 1.02.

As to GTATTAGGAG, the switch fluorescence ratio worked out at 0.958.

For AGCGTACGCA, the switch fluorescence ratio was determined as 1.02.

CATTAACAGT: the switch fluorescence ratio worked out at 0.983.

As to ATGGAATGTG, the switch fluorescence ratio was 0.94.

In the case of TTTTTACCG, the switch fluorescence ratio was determined as 1.08.

Consider ATAGGAACTC, for which the switch fluorescence ratio is 1.03.

On to TTACGAAG, for which the switch fluorescence ratio worked out at 0.979.

As for CGGGCAAGCT, the switch fluorescence ratio turned out to be 1.03.

Take TGGCAACAAG: the switch fluorescence ratio amounted to 1.01.

For GCCGGGGTAC, the switch fluorescence ratio turned out to be 1.16.

Turning to ACAACAGGAT, the switch fluorescence ratio was 0.981.

As for GGTTTCCTTA, the switch fluorescence ratio is 0.988.

In the case of ACATCGAAGT, the switch fluorescence ratio stood at 1.

On to GCCTGGTCAC, for which the switch fluorescence ratio was determined as 1.03.

For TCCGTTGTCT, the switch fluorescence ratio was determined as 1.06.

As to TCTGCGAAAC, the switch fluorescence ratio worked out at 2.03.

As for GTCGGTCCTA, the switch fluorescence ratio is 1.01.

Regarding TCAAGCTTGC, the switch fluorescence ratio was found to be 0.97.

Consider GTTGCTTTAA, for which the switch fluorescence ratio was found to be 1.01.

In the case of TGGTGTACTC, the switch fluorescence ratio is 1.01.

As to GGGTTTCTTG, the switch fluorescence ratio amounted to 0.993.

Turning to AAGATGCTCG, the switch fluorescence ratio is 1.

Take CTATTGTCGG: the switch fluorescence ratio came to 1.03.

Turning to AACAACGAGA, the switch fluorescence ratio worked out at 1.

For the sequence CTTGGGTGGC, the switch fluorescence ratio is 0.972.

Regarding TGACTCCTCA, the switch fluorescence ratio turned out to be 1.

Take TTATGCGCTA: the switch fluorescence ratio is 1.1.

TCACTTAGTG: the switch fluorescence ratio came out at 0.998.

TAGCTAAACT: the switch fluorescence ratio is 0.993.

In the case of TACGAAGAAT, the switch fluorescence ratio was 0.99.

On to ACGGATGGTT, for which the switch fluorescence ratio came to 0.972.

As for TTCGGACGTG, the switch fluorescence ratio amounted to 0.987.

Regarding TACTAATCCT, the switch fluorescence ratio came out at 1.1.

Regarding TTTTCAGACT, the switch fluorescence ratio was found to be 1.04.

In the case of AATCATTTCC, the switch fluorescence ratio was 1.18.

GTGTTATTCC: the switch fluorescence ratio was 0.994.

With ATAAAGTCGT, the switch fluorescence ratio came to 0.985.

Take GATTGTAGGG: the switch fluorescence ratio was 0.998.

Turning to GGGCGCAATA, the switch fluorescence ratio was 1.3.

For the sequence TGGCGACGGG, the switch fluorescence ratio stood at 1.04.

CTTAAGTCCG: the switch fluorescence ratio came to 1.01.

With CCGTCGATGC, the switch fluorescence ratio came to 1.13.

As to ATTCGAGGGC, the switch fluorescence ratio came to 1.02.

For the sequence GCATTCTCAG, the switch fluorescence ratio came out at 0.994.

Take TATAAAGTGT: the switch fluorescence ratio was 0.985.

With GGCCATTCCT, the switch fluorescence ratio stood at 1.01.

On to GCCAGATTTG, for which the switch fluorescence ratio was 0.994.

Consider TATAGATTGC, for which the switch fluorescence ratio was found to be 0.989.

Consider GGACTTCCGC, for which the switch fluorescence ratio stood at 1.57.

GCGTGCTCTT: the switch fluorescence ratio stood at 0.978.

Regarding ACGGATCTCG, the switch fluorescence ratio was 0.99.

As to TACCCGCTGG, the switch fluorescence ratio was 1.08.

Take GAATACAGGT: the switch fluorescence ratio was 0.99.

Consider CACTGGTAGC, for which the switch fluorescence ratio came out at 1.06.

TATTCACCGG: the switch fluorescence ratio amounted to 1.

In the case of CATCCCCAAA, the switch fluorescence ratio turned out to be 2.19.

Turning to GTTTACCCTC, the switch fluorescence ratio worked out at 0.996.

With CGGATGCTCT, the switch fluorescence ratio turned out to be 0.974.

GTTCTTTGGC: the switch fluorescence ratio was determined as 0.985.

ACATGCCGTT: the switch fluorescence ratio was found to be 1.01.

Consider ACCTGATGTA, for which the switch fluorescence ratio turned out to be 0.962.

On to GTGCGTTGAC, for which the switch fluorescence ratio came to 1.05.

Consider CAGGAAGCCT, for which the switch fluorescence ratio amounted to 1.12.

TTCCACTTCT: the switch fluorescence ratio was found to be 1.03.

With TAAGGGGACT, the switch fluorescence ratio is 1.03.

Turning to TGTTCAAAGT, the switch fluorescence ratio amounted to 0.956.

Turning to TTAGGGTTAT, the switch fluorescence ratio turned out to be 0.997.

On to CCCTTGAAGC, for which the switch fluorescence ratio came to 1.04.

For TAGCCATTCT, the switch fluorescence ratio came out at 0.935.

With ACCTCTCACT, the switch fluorescence ratio is 1.16.

On to GGTCGCTATG, for which the switch fluorescence ratio is 1.02.

On to TCACGATTAA, for which the switch fluorescence ratio was found to be 0.984.

As to GGGATGGGG, the switch fluorescence ratio amounted to 1.

In the case of AACACCGTAG, the switch fluorescence ratio was found to be 1.13.

CGGTACCTAA: the switch fluorescence ratio was 1.01.

As to TTCCCCAAGC, the switch fluorescence ratio worked out at 1.17.

With GGGATAGCGA, the switch fluorescence ratio was determined as 1.02.

Take ACTATTAGTT: the switch fluorescence ratio was determined as 1.01.

As for GTATTGGGGT, the switch fluorescence ratio stood at 0.995.

Turning to ACTCTGACGG, the switch fluorescence ratio turned out to be 1.11.

Take CTGCAGTCGG: the switch fluorescence ratio was determined as 1.13.

With CTTTCTCGA, the switch fluorescence ratio worked out at 1.03.

Take ATGTTTCTTG: the switch fluorescence ratio was determined as 0.968.

In the case of TTGCGATCCG, the switch fluorescence ratio was found to be 1.01.

In the case of TTTCTCCGAT, the switch fluorescence ratio worked out at 1.

As to TTGATGATTA, the switch fluorescence ratio came out at 1.

On to GAACCCTCAC, for which the switch fluorescence ratio stood at 1.11.

On to ACCGAGAGTA, for which the switch fluorescence ratio is 0.999.

Consider ACTGTTAATT, for which the switch fluorescence ratio worked out at 1.06.

With CTCTAAAATT, the switch fluorescence ratio came out at 1.2.

For TGAAGTTCCT, the switch fluorescence ratio stood at 0.974.

With GTCGTAAGAA, the switch fluorescence ratio was 1.

Consider AGGGCTGGTA, for which the switch fluorescence ratio came out at 1.

For the sequence ATGAAGTATA, the switch fluorescence ratio came out at 0.983.

On to GATGCCTTAG, for which the switch fluorescence ratio amounted to 0.983.

Regarding GGTCGACGGG, the switch fluorescence ratio was 1.

For the sequence TTAAACATTT, the switch fluorescence ratio turned out to be 0.981.

With CGGCCGGAGG, the switch fluorescence ratio is 0.978.

With TTGTCTCTAT, the switch fluorescence ratio amounted to 1.01.

As to GCTTAAATTA, the switch fluorescence ratio was 0.986.

Turning to TCTGTGCCGC, the switch fluorescence ratio is 1.08.

For the sequence AGTGCTCAGG, the switch fluorescence ratio amounted to 1.06.
